Laboratory results reported in patent publication US20260240958A1, “REPRESSOR FUSION PROTEIN SYSTEMS” (Scribe Therapeutics Inc., priority 2023, published 2026).

Tested on: B2M locus
Assay: B2M repression by HLA immunostaining and flow cytometry in HEK293T cells transfected with LTRP:gRNA plasmids
Conditions: 4 days post-transfection

B1: DOMAIN_22153: repressor domain, Zalophus californianus, SEQ ID NO 204 (protein, listed as Zalophus californianus)
chain: VRMPVTFEDVAVTFTQEEWGQLDPAQRTLYQEVMLETCGLLVSLGCPLPKPELFYPLDHSPELQTLKRGLSPNSCPGDSTK
B2M repression as second repressor domain in LTRP6 configuration: highest level of B2M repression at 4 days post-transfection

B2: DOMAIN_10123: repressor domain, Rattus norvegicus, SEQ ID NO 131 (protein, listed as Rattus norvegicus)
chain: ALVTFEDVAVRFTQEEWALLDPSQKILYRDVMRETYRNLTSVGINWECWDLEACFRSLGRNLRVQVVKRKCELTNSGPCAE
B2M repression as second repressor domain in LTRP6 configuration: highest level of B2M repression at 4 days post-transfection
